± gives the standard deviation of the averaged measurements. Over roughly 33,000 sequences, “E-score (dimensionless, -0.5 to 0.5)” has its median near -0.049; the highest 2% begin near 0.37. Some of the results follow.

The assay has as its system T1, PmTbr T-box DNA-binding domain (GST fusion).
T1 sequence: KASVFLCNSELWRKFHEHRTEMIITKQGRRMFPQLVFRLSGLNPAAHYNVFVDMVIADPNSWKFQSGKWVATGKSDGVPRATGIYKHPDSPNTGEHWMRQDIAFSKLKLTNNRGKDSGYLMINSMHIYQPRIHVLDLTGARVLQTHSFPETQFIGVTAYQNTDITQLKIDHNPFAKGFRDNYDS
In words: PBM E-score of 8-mer (E-score (dimensionless, -0.5 to 0.5)); Tbr is Tbrain of the sea star Patiria miniata (Pm) or the sea urchin Strongylocentrotus purpuratus (Sp); higher = stronger binding preference; most listed sequences are background and not binding sites. Conditions: the construct has about 5 more residues each side. The method, boiled down:
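Using the Universal PBM Analysis Suite, every ungapped 8-mer received an enrichment E-score averaged over duplicate arrays. Probe intensities came from double-stranded Universal Agilent oligonucleotide arrays incubated with 200 nM GST-fused Tbr T-box DNA-binding domain in PBS (pH 7.5). That protein was expressed in BL21 E. coli at 20 °C and purified by glutathione affinity chromatography.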
Take TGTAACAA: the “PBM E-score of 8-mer” value was 0.158 ± 0.0033.

With ATTCTCAG, the “PBM E-score of 8-mer” value came to 0.0465 ± 0.077.

For the sequence ATCAGAAA, the “PBM E-score of 8-mer” value was -0.0057 ± 0.0071.

For AACGCCCC, the “PBM E-score of 8-mer” value is 0.242 ± 0.04.

On to ACTTTCAT, for which the “PBM E-score of 8-mer” value was 0.0367 ± 0.14.

Consider AATAGGGC, for which the “PBM E-score of 8-mer” value is -0.252 ± 0.022.

In the case of AGCTGAGC, the “PBM E-score of 8-mer” value is -0.174 ± 0.014.

In the case of CTGCGATC, the “PBM E-score of 8-mer” value came to 0.0258 ± 0.0016.

As for AAAGGCAT, the “PBM E-score of 8-mer” value was -0.0624 ± 0.02.

AATCCTTG: the “PBM E-score of 8-mer” value is -0.1258 ± 0.0011.

In the case of GGAGGCGA, the “PBM E-score of 8-mer” value was found to be 0.22 ± 0.015.

Turning to TCGCCAAA, the “PBM E-score of 8-mer” value was 0.0695 ± 0.043.

On to ATTTGCTG, for which the “PBM E-score of 8-mer” value was -0.0673 ± 0.043.

As to CCTCATTA, the “PBM E-score of 8-mer” value was -0.242 ± 0.0051.

Take AATATCAC: the “PBM E-score of 8-mer” value stood at 0.30788 ± 0.00011.

Turning to CAGCGACC, the “PBM E-score of 8-mer” value is -0.129 ± 0.2.

Take AAGTCAAC: the “PBM E-score of 8-mer” value came out at 0.0939 ± 0.029.

With AGTTCTCG, the “PBM E-score of 8-mer” value came out at 0.197 ± 0.0035.

As for ATACTTCA, the “PBM E-score of 8-mer” value is -0.169 ± 0.0046.

Consider ACGGCTCT, for which the “PBM E-score of 8-mer” value is -0.15 ± 0.033.

Consider ATCCCCGA, for which the “PBM E-score of 8-mer” value is -0.194 ± 0.082.

For CAATAAGA, the “PBM E-score of 8-mer” value is -0.203 ± 0.026.

For ATCTTAAA, the “PBM E-score of 8-mer” value is -0.154 ± 0.073.

Take CCTTGCTA: the “PBM E-score of 8-mer” value is 0.084 ± 0.032.

Take GAGCCCCC: the “PBM E-score of 8-mer” value is -0.199 ± 0.016.

As for CAAGCGGA, the “PBM E-score of 8-mer” value is -0.141 ± 0.0045.

Regarding ATACAATG, the “PBM E-score of 8-mer” value was 0.0217 ± 0.0012.

As to GGGGCACC, the “PBM E-score of 8-mer” value is -0.0842 ± 0.028.

Consider AACATGGC, for which the “PBM E-score of 8-mer” value was -0.194 ± 0.054.

For AATGGGAA, the “PBM E-score of 8-mer” value was -0.314 ± 0.005.

In the case of AAGAAGAT, the “PBM E-score of 8-mer” value was -0.0983 ± 0.045.

Regarding CGGTGAAA, the “PBM E-score of 8-mer” value was -0.0916 ± 0.099.

Take AAAGTAAA: the “PBM E-score of 8-mer” value is -0.223 ± 0.024.

Turning to ATTGCATC, the “PBM E-score of 8-mer” value is -0.201 ± 0.029.

On to ATGAGTAA, for which the “PBM E-score of 8-mer” value is -0.0606 ± 0.02.

AGAAAGTG: the “PBM E-score of 8-mer” value worked out at 0.314 ± 0.05.

With CTTTTCCC, the “PBM E-score of 8-mer” value is -0.109 ± 0.06.

Take ATCACAAC: the “PBM E-score of 8-mer” value came to 0.299 ± 0.0047.

Take GTACATAC: the “PBM E-score of 8-mer” value is -0.0822 ± 0.037.

Take TCTGCAAA: the “PBM E-score of 8-mer” value is -0.106 ± 0.0089.

Take AGCGCCGA: the “PBM E-score of 8-mer” value stood at 0.178 ± 0.037.

On to AGAGCCTA, for which the “PBM E-score of 8-mer” value is -0.322 ± 0.024.

GCAATAGA: the “PBM E-score of 8-mer” value is -0.114 ± 0.035.

AACACGTT: the “PBM E-score of 8-mer” value amounted to 0.386 ± 0.014.

For AAGAAATA, the “PBM E-score of 8-mer” value stood at 0.157 ± 0.026.

For the sequence ATGCTATA, the “PBM E-score of 8-mer” value is -0.182 ± 0.01.

Regarding CTCCTTTA, the “PBM E-score of 8-mer” value amounted to 0.00851 ± 0.0065.

As to GCTCCACA, the “PBM E-score of 8-mer” value is -0.0189 ± 0.02.

Take GAAAAAGC: the “PBM E-score of 8-mer” value was -0.134 ± 0.01.

CAACTGAC: the “PBM E-score of 8-mer” value was determined as 0.191 ± 0.039.

Turning to ACGAAAAG, the “PBM E-score of 8-mer” value was -0.162 ± 0.13.

As to GATCGGAC, the “PBM E-score of 8-mer” value was -0.176 ± 0.04.

For GTTACCCA, the “PBM E-score of 8-mer” value was determined as 0.0913 ± 0.06.

Consider ATATGCAC, for which the “PBM E-score of 8-mer” value is -0.124 ± 0.038.

As for AGGTGGTC, the “PBM E-score of 8-mer” value was -0.0579 ± 0.012.

Turning to AAGTATCA, the “PBM E-score of 8-mer” value came out at 0.149 ± 0.091.

In the case of ATCGTTGG, the “PBM E-score of 8-mer” value amounted to 0.06 ± 0.07.

Regarding ACCTGAGG, the “PBM E-score of 8-mer” value stood at 0.0955 ± 0.086.

For the sequence GCGATAGA, the “PBM E-score of 8-mer” value came out at 0.243 ± 0.013.

Turning to AAGATTAC, the “PBM E-score of 8-mer” value is -0.178 ± 0.0038.

As for ACACGCGG, the “PBM E-score of 8-mer” value was determined as 0.165 ± 0.0052.

Consider GCTACACC, for which the “PBM E-score of 8-mer” value came out at 0.207 ± 0.026.

Regarding ATATAGCA, the “PBM E-score of 8-mer” value was found to be 0.141 ± 0.013.

Consider CAAACCAA, for which the “PBM E-score of 8-mer” value was -0.248 ± 0.099.

With ACATGTAG, the “PBM E-score of 8-mer” value is -0.13 ± 0.065.

With GCCTGGAA, the “PBM E-score of 8-mer” value was -0.232 ± 0.045.

CGCTACCC: the “PBM E-score of 8-mer” value was 0.142 ± 0.027.

As for CAACACTG, the “PBM E-score of 8-mer” value is 0.289 ± 0.0071.

Take CGTTCAGA: the “PBM E-score of 8-mer” value was -0.201 ± 0.11.

For AGTACAAA, the “PBM E-score of 8-mer” value was -0.0892 ± 0.035.

Turning to CGGCGATA, the “PBM E-score of 8-mer” value was 0.0663 ± 0.038.

As for AAACTGCC, the “PBM E-score of 8-mer” value is 0.0053 ± 0.013.

With CGATAACA, the “PBM E-score of 8-mer” value worked out at 0.25 ± 0.029.

On to ATGATGCA, for which the “PBM E-score of 8-mer” value stood at 0.102 ± 0.023.

ATTGCATA: the “PBM E-score of 8-mer” value was -0.0736 ± 0.052.

As to AACACGAG, the “PBM E-score of 8-mer” value amounted to 0.132 ± 0.0066.

As for CCGCAGAG, the “PBM E-score of 8-mer” value is -0.307 ± 0.087.

On to ACACAAAT, for which the “PBM E-score of 8-mer” value is -0.0735 ± 0.016.

For AAGCATGG, the “PBM E-score of 8-mer” value was -0.154 ± 0.029.

For ACTGATAT, the “PBM E-score of 8-mer” value worked out at 0.106 ± 0.019.

Regarding AGCTAACC, the “PBM E-score of 8-mer” value was -0.261 ± 0.041.

Turning to ATGAGGAG, the “PBM E-score of 8-mer” value is -0.0971 ± 0.051.

Consider AGAAGCCA, for which the “PBM E-score of 8-mer” value is -0.227 ± 0.072.

For the sequence ATCGATGC, the “PBM E-score of 8-mer” value was -0.0132 ± 0.054.

As for CCCGTCAC, the “PBM E-score of 8-mer” value was determined as 0.368 ± 0.03.

As for GACGATAA, the “PBM E-score of 8-mer” value was found to be 0.0373 ± 0.0056.

Consider AGCGGCAT, for which the “PBM E-score of 8-mer” value is -0.046 ± 0.0046.

CCGACTAG: the “PBM E-score of 8-mer” value was determined as 0.08 ± 0.023.

Consider AAATTTAT, for which the “PBM E-score of 8-mer” value was -0.0896 ± 0.094.

CTTAATGA: the “PBM E-score of 8-mer” value was -0.149 ± 0.099.

For TTCACCAA, the “PBM E-score of 8-mer” value was -0.0625 ± 0.074.

As to GTCCAGGA, the “PBM E-score of 8-mer” value is -0.195 ± 0.049.

As for GCATTTCC, the “PBM E-score of 8-mer” value is -0.0797 ± 0.0039.

For the sequence GATCTTCC, the “PBM E-score of 8-mer” value is -0.0847 ± 0.04.

Turning to AATCACGG, the “PBM E-score of 8-mer” value was determined as 0.0105 ± 0.017.

As to AGTATCAC, the “PBM E-score of 8-mer” value came out at 0.277 ± 0.055.

Consider ATGCGGAA, for which the “PBM E-score of 8-mer” value was -0.0719 ± 0.0072.

For the sequence CCACACGG, the “PBM E-score of 8-mer” value was found to be 0.0921 ± 0.0026.

Take GTCGTACA: the “PBM E-score of 8-mer” value was -0.208 ± 0.038.

With CGGCACAG, the “PBM E-score of 8-mer” value worked out at 0.103 ± 0.071.

Consider GAGATTTA, for which the “PBM E-score of 8-mer” value is -0.0795 ± 0.052.

In the case of AACACTAC, the “PBM E-score of 8-mer” value came to 0.241 ± 0.063.

Turning to AGAATCGC, the “PBM E-score of 8-mer” value was determined as 0.176 ± 0.0087.

With CACTATGC, the “PBM E-score of 8-mer” value is 0.129 ± 0.027.

Regarding CCGCGAAA, the “PBM E-score of 8-mer” value is 0.305 ± 0.027.

As to CAAAGCTA, the “PBM E-score of 8-mer” value is -0.107 ± 0.006.

ACGCCAAA: the “PBM E-score of 8-mer” value worked out at 0.213 ± 0.0076.

AGCCGTGC: the “PBM E-score of 8-mer” value was -0.113 ± 0.04.

Turning to ACTTAATA, the “PBM E-score of 8-mer” value turned out to be 0.02 ± 0.1.
